Data on 113 sequences can be found in the supplement of paper PMC3724861.

Some of the results follow.

The test system of the experiment is T1, Caupolican (Caup) homeodomain DNA-binding domain.
T1 sequence: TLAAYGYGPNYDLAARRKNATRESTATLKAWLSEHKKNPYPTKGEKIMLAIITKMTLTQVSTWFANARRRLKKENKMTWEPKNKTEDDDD
Nature of the experiment: PBM E-score (8-mer, recovered from the published 9-mer minima) (E-score (dimensionless, -0.5 to 0.5)); Drosophila protein; higher = stronger relative binding preference, active = 0.31 or more. The method, boiled down: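 Caup's homeodomain DNA-binding domain (residues 214-303) was made by in vitro transcription and translation and applied at 100 nM to custom-designed protein binding microarrays. Each value is an enrichment score that gives relative binding preference for a short DNA word, with higher meaning stronger. The 8-mer values were recovered from published 9-mer scores, each of which was the minimum of its two constituent 8-mer scores. A cutoff of 0.31 marks candidate sites.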
Take AGGTCACA: the “PBM E-score” value is inactive: 0.0145.

With GCGGTCAC, the “PBM E-score” value is inactive: -0.235. As for AACAACGA, the “PBM E-score” value is inactive: 0.279.

Consider CAGGGCGG, for which the “PBM E-score” value was inactive: -0.246. Consider AGGACCTA, for which the “PBM E-score” value is inactive: -0.0797.

As to TAGGCGAA, the “PBM E-score” value is not below -0.00406. Take CCATGTTA: the “PBM E-score” value is active: 0.406. The same measure for AGCGATAG: inactive: -0.151; for CCTCGTAA: inactive: 0.11. Consider ACGAGACC, for which the “PBM E-score” value was inactive: 0.0801. For CGCAGGCG, the “PBM E-score” value is inactive: -0.267. The same measure for CCAGTTTA: inactive: 0.0149. The same measure for AGCGTCGG: inactive: -0.132; for ACAGAGAG: inactive: -0.00515.

For AACTTCTA, the “PBM E-score” value is inactive: 0.0182. On to CGACGCAA, for which the “PBM E-score” value was inactive: -0.132.

As for TCGCCGCA, the “PBM E-score” value is inactive: -0.147. Consider AAGAGGGA, for which the “PBM E-score” value was inactive: -0.0657. The same measure for ATAGCAAC: inactive: 0.118. The figure for AGAGACGG is inactive: -0.108; for AGGTGTGA it is inactive: 0.00706; for AGTCTGTC it is inactive: 0.0664. The figure for ACTAGTGG is inactive: 0.106; for AAACCTTT it is inactive: 0.00249. For the sequence CATGTCGA, the “PBM E-score” value is active: 0.412. Regarding TAATTTGA, the “PBM E-score” value was inactive: 0.117. TACTTATA: the “PBM E-score” value was inactive: 0.0399. As to AAAGATCT, the “PBM E-score” value was inactive: -0.0373. The same measure for ATCTCGCC: inactive: -0.197; for TCCGGCCA: inactive: -0.242; for ATACGTTG: inactive: 0.106. The figure for CGCATCAC is inactive: -0.118. The figure for CGGCGGCA is inactive: -0.253; for CGGCAGTC it is inactive: -0.0979. With TATAGCCA, the “PBM E-score” value was inactive: 0.0208. The figure for CCAGTTCC is inactive: -0.2; for AAGCTAGT it is inactive: 0.0834; for AACCAATT it is inactive: 0.0783. The figure for GCTGTCCA is inactive: 0.0718; for TCAGTCCA it is inactive: -0.00933. The figure for CTTTGAAA is inactive: 0.0665. On to AAGTCGAA, for which the “PBM E-score” value was inactive: 0.00758. The figure for CGCTGCGC is inactive: -0.23.

Take ATCAATAA: the “PBM E-score” value was inactive: 0.148.

AACCGCTA: the “PBM E-score” value is inactive: -0.0271. The same measure for CGTCAAAC: inactive: 0.0102.

For the sequence CCCATACC, the “PBM E-score” value is inactive: -0.1. The figure for GAACATCC is inactive: 0.295.

In the case of AGCGCAAA, the “PBM E-score” value is inactive: -0.0105. The same measure for AACTAGAT: inactive: 0.0811; for GACGGCGC: inactive: -0.257. The figure for GCAGTGAC is inactive: -0.0444. The same measure for GGCATTCA: inactive: -0.116; for GGAAAAAC: inactive: 0.112; for GTGCTAGA: inactive: 0.0623. On to ACACTAAG, for which the “PBM E-score” value is inactive: 0.0518. The figure for TCTATGCA is not below 0.126. The same measure for GACCACGA: inactive: -0.0237. The figure for ACGAAGCC is inactive: -0.195; for ATGACGTG it is inactive: 0.102. As to AATGCTGC, the “PBM E-score” value was inactive: 0.0331.

Take CTGTACCA: the “PBM E-score” value was inactive: 0.186.

Turning to CACGCGTA, the “PBM E-score” value was inactive: 0.1.

In the case of AAGTGTGA, the “PBM E-score” value was inactive: 0.0589.

Consider GCCACGCA, for which the “PBM E-score” value was inactive: -0.203. The same measure for ATCTGGAA: inactive: 0.0226; for CAAGGGGG: inactive: -0.227; for CCGTACAC: inactive: 0.199. For AGACCAGG, the “PBM E-score” value is inactive: -0.092. The same measure for ATAGTAAT: inactive: 0.172.

Consider AGTTACAA, for which the “PBM E-score” value is inactive: 0.295.

Consider TCCTTACA, for which the “PBM E-score” value was inactive: 0.249. For CGTCCTAC, the “PBM E-score” value is inactive: -0.0617.

GCAAGACC: the “PBM E-score” value is inactive: -0.186. The same measure for CCTTCGGC: inactive: -0.283; for TAGGTTGA: inactive: -0.0203. The figure for ATCTGGAG is not below -0.00757; for CCGTGTGC it is inactive: -0.107. Regarding ATCAATCA, the “PBM E-score” value is inactive: 0.131. Consider CGGCTGAA, for which the “PBM E-score” value was inactive: -0.142.

CACATTGG: the “PBM E-score” value is inactive: -0.026. For GCGCTAGC, the “PBM E-score” value was inactive: -0.191. On to AACCCTCA, for which the “PBM E-score” value is not below -0.0332.

In the case of CGGCTTCC, the “PBM E-score” value is inactive: -0.252.

Take AGCGGCCG: the “PBM E-score” value was inactive: -0.228. In the case of GGCCGACA, the “PBM E-score” value was inactive: 0.00142. For the sequence GGACAGCC, the “PBM E-score” value is inactive: -0.141. The same measure for CGCAGCCC: inactive: -0.322; for GACCTATA: inactive: 0.0614; for AGGCTGCA: inactive: -0.0993.

ACTGAACT: the “PBM E-score” value was inactive: -0.00202. The figure for AGTGCACT is inactive: 0.0619; for GGGAGAAA it is inactive: -0.0791; for GTGTATTA it is inactive: 0.297. The same measure for CAGGTTGC: inactive: 0.0186; for GGCCACCC: inactive: -0.256. For CCGGCTAG, the “PBM E-score” value was inactive: -0.178. In the case of CCTATCAC, the “PBM E-score” value is inactive: 0.0316.

As to GCTTGCAC, the “PBM E-score” value was inactive: -0.0951. The figure for AAACCGGC is inactive: -0.0448; for AGGAATAT it is inactive: 0.0658. The same measure for ATTAGGCA: inactive: 0.0459; for GGCGCCCC: inactive: -0.294; for CGAGACGA: inactive: -0.0756. The figure for ATGCCATG is inactive: 0.119. For CATCGCGG, the “PBM E-score” value is inactive: -0.134. The same measure for AGCGCATC: inactive: -0.0998. As for TGCTGAAA, the “PBM E-score” value is inactive: 0.0105. The same measure for AAATCACT: inactive: 0.0636. The same measure for ACGCTCCT: not below -0.0296; for CTGTCTCC: inactive: -0.115; for TACAGGTA: not below 0.253. The figure for CATTGTGA is inactive: 0.0929.
